From paper PMC6919601, “Identification of Plasmodium dipeptidyl aminopeptidase allosteric inhibitors by high throughput screening” (PLoS ONE, 2019)
Screen size: about 110,000 compounds; about 230 (0.21%) showed an effect of 50% or more. This is one part of the list.

biological target: DPAP1 (Plasmodium falciparum, UniProt Q8IIJ9); test: primary screen, percent inhibition; read by cleavage of a fluorogenic dipeptide substrate; higher = more effect of the substance; parameters: species or system P. falciparum D10 trophozoite lysates; single well
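Note: 30 min substrate incubation versus DMSO and 10 µM JCP410 controls.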

Sequence of DPAP1 (Q8IIJ9 whole entry, looked up): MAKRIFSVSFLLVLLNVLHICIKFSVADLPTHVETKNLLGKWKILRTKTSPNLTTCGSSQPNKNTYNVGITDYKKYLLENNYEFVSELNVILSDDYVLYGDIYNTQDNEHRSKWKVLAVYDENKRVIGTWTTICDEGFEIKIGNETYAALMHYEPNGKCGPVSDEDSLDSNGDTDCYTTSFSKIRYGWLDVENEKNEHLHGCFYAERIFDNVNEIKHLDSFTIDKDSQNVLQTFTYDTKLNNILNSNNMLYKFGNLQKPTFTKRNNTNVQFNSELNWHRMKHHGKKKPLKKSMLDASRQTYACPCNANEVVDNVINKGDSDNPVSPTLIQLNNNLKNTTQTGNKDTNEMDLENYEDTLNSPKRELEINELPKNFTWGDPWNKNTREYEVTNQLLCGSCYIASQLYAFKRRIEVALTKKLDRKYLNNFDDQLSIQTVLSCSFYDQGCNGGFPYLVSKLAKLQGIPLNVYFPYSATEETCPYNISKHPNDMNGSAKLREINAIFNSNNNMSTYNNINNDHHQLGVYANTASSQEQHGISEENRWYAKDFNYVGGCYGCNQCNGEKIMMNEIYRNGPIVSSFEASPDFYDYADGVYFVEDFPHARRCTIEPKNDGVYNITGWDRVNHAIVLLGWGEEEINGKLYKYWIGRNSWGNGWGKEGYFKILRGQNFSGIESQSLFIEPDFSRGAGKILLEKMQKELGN

Compound | % Inhibition @ 10 uM
O=C(c1cccc(C(=O)N2CCc3ccccc32)c1)N1CCc2ccccc21 | -1.96%
COc1ccc(C2CC3=NC(C)=C(C(=O)Nc4cccc(C)n4)C(c4ccc(F)cc4)C3=C(O)C2)cc1 (centres unmarked) | 5.18%
Nc1ncc(Br)nc1Br | -2.88%
O=C(c1ccccc1)c1cnc2ccc(F)cc2c1N1CCOCC1 | -1.69%
Cc1ccc(NC(=O)c2ccccc2C)c([N+](=O)[O-])c1 | 0.247%
CCO/C(O)=C/C1=NC2(CCCCC2)Cc2cc(OC)c(OC)cc21 | 7.67%
CC1CCc2nn(CC(=O)NCCN3CCCCC3C)cc2C1 (centres unmarked) | -3.35%
CC1CCc2c(sc(NC(=O)Cc3ccccc3)c2C#N)C1 (centres unmarked) | -2.56%
COc1ccc(C2C(C(C)=O)=C(C)N=c3s/c(=C/c4ccc(N(C)C)cc4)c(=O)n32)cc1 (centres unmarked) | 5.87%
CCCCNC(=O)C1CCCN(c2nc3ccc(OC)cc3s2)C1 (centres unmarked) | 2.59%
O=C(Nc1ccc2nc(SCc3ccccc3)sc2c1)c1ccccc1 | -3.5%
CC(=O)Nc1cccc(NC(=O)c2c(-c3c(Cl)cccc3Cl)noc2C)c1 | 6%
O=C1N=C(N2CCCCCC2)S/C1=C/c1ccccc1 | 3.84%
COc1ccc(C)cc1C1=C/C(=C\c2ccc(C)o2)C(=O)O1 | -10.8%
c1ccc2c(c1)c(NCc1ccc3c(c1)OCO3)nn1cnnc21 | 0.675%
CCCSCCCNC(=O)Cn1nc(C)n2cccc2c1=O | -2.15%
CC1=NN(C(=O)c2cccc(C)c2O)C(O)(C(F)(F)F)C1 (centres unmarked) | -2.67%
COCCCNc1ncnc2onc(C)c12 | -0.349%
CCN1CCCC1CNC(=O)c1nnc(Cc2ccc(F)cc2)o1 (centres unmarked) | 1.19%
CS(=O)(=O)CCC(C(=O)N1CCC2(CC1)OCCO2)N1Cc2ccccc2C1=O (centres unmarked) | 0.56%
COc1ccc(CCN2CC(=O)N3CCCC(c4cc(O)ccc4O)=C3C2=O)cc1OC | 0.222%
Cn1c(=O)c2sccc2n2c(CCCC(=O)N3CCN(Cc4ccccc4)CC3)nnc12 | -1.59%

Compound | % Inhibition @ 10 uM
COC(=O)c1ccc(C2Nn3c(nnc3-c3ccccc3)SC2C(=O)NCc2ccco2)cc1 (centres unmarked) | 4.93%
C=CC[C@H]1CC(Cc2ccccc2)=C[C@H](CC=C)N1 | -10.5%
C=CCOC(=O)C1=C(C)N=C2SCCC(=O)N2C1c1ccc(Cl)c(Cl)c1 (centres unmarked) | -1.4%
CCOc1ccc(-c2c(C#N)c(N)nc(OC)c2C#N)cc1 | -5.5%
O=C(N1CC=C(c2c[nH]c3ccccc23)CC1)n1ccnc1 | -1.75%
Cc1nc2ccccc2n1CCOc1ccccc1Cl | 0.162%
N#Cc1c(N)nc(S)c(C#N)c1-c1cccc(Cl)c1 | 49.6%
COC(=O)C1=C(C)NC(=O)CC1c1cccc(Cl)c1Cl (centres unmarked) | 1.84%
CCN1CCN(c2nc3c(c(=O)n(C)c(=O)n3C)n2Cc2ccc(Br)cc2)CC1 | 3.35%
COc1cc(C2C(C(=O)c3ccccc3)=C(O)C(=O)N2CCN(C)C)ccc1O (centres unmarked) | 7.73%
CC(C)(C)NS(=O)(=O)c1ccc(NC(=O)Nc2ccc(Cl)cc2)cc1 | 1.64%
COc1ccc(/C=C2\N=C(SC)N(C)C2=O)cc1 | 0.76%
Cc1ccc(C2CC(=O)NC(SCc3ccccc3)=C2C#N)cc1 (centres unmarked) | 2.01%
COc1ccc(/C=C2\C(=O)N(c3cccc(F)c3)N=C2C)cc1 | 0.219%
CCCCCCNC(=O)CC(NS(=O)(=O)c1ccc(C)cc1)c1ccco1 (centres unmarked) | 1.27%
CCOC(=O)C1=C(CS(=O)(=O)c2ccccc2)NC(=O)NC1c1cc(OC)c(OC)cc1OC (centres unmarked) | 1.24%
NC(=O)c1cnn(-c2cc(Oc3ccccc3)ncn2)c1N | 1.64%
Nc1c(C(=O)c2cccc([N+](=O)[O-])c2)sc2nccc(Nc3ccccc3)c12 | 5.77%
CCOCCCNC1CCN(CCc2ccccc2)CC1 | -3.82%
Cc1ccc(C2C(C#N)=C(N)Oc3cc4c(cc32)OCO4)cc1 (centres unmarked) | -5.96%
COc1ccc(S(=O)(=O)Nc2ccccc2F)cc1OC | -7.02%
COc1ccc(/C=C/C=C(\C#N)S(=O)(=O)c2ccccc2)cc1 | -3.9%

Compound | % Inhibition @ 10 uM
C=CCn1c(SCc2ccccc2)nc(=O)c(CC)c1O | -3.15%
Cn1nnnc1SCCCNCC#Cc1ccccc1 | 5.39%
COc1c(Cl)cc(Cl)cc1C(=O)N1CCOCC1 | -1.8%
CCCCNC(=O)Cn1ncc2c1-c1cc(C)ccc1OC2 | -3.5%
CC(C)(C)NC(=O)COc1ccc(CNc2ccc3c(c2)OCCO3)cc1 | 2.01%
O=C(Cc1cccc2ccccc12)Nc1cnc2ccccc2c1 | -1.46%
Cc1ccc(Cn2c(C(=O)O)c(CNCCc3ccccc3C)c3ccc(C)cc32)cc1 | 7.87%
c1ccc(CN2CCC(NC3CCc4ccccc4C3)CC2)cc1 (centres unmarked) | -2.95%
c1ccc(-c2csc3ncnc(N4CCOCC4)c23)cc1 | 2.38%
Cc1cc(C)c(C)c(OCC(=O)NCc2nc(-c3ccccc3)no2)c1 | -2.99%
CCOc1ccccc1CNC(=O)CN1C(=O)CSc2c1c(C)nn2-c1ccccc1 | 3.82%
C=CCNC(=O)CN(C)S(=O)(=O)c1ccc(OC)c(OC)c1 | -3.76%
Cc1ccc(OCC(=O)Nc2ccccc2F)cc1 | 0.247%
COc1ccc(CCNC(=O)C2Cc3ccccc3CN2S(=O)(=O)c2ccc(C)cc2)cc1OC (centres unmarked) | -7.9%
O=C(CN(Cc1ccccc1)S(=O)(=O)c1cc(Cl)ccc1Cl)N1CCOCC1 | -0.185%
COc1ccc(CNC(=O)c2coc(=O)c3ccccc23)cc1 | -0.631%
COc1cc(OC)cc(-c2nc3nc(C)c(CCC(=O)O)c(C)n3n2)c1 | -1.03%
Cc1c(Cl)cccc1NC(=O)CC1NCCNC1=O (centres unmarked) | -5.81%
O=C(NCCc1c[nH]c2ccccc12)C(F)(F)C(F)F | 7.04%
Cc1nc2ccccc2n1CCc1nc2c3ccccc3nc(N3CCC(C)CC3)n2n1 | 2.6%
Cc1ccc(-c2cc(C(F)(F)F)n3nc(C(=O)N4CCOCC4)c(Cl)c3n2)cc1 | -2.89%
